# Laboratory results published in the BET-seq Pho4 binding data (Le et al. 2018).
# This is one part of the list. These are noisy estimates, calculated here from bound and input reads.
# Target: T1, Pho4 (S. cerevisiae) (UniProt P07270)
# T1 sequence: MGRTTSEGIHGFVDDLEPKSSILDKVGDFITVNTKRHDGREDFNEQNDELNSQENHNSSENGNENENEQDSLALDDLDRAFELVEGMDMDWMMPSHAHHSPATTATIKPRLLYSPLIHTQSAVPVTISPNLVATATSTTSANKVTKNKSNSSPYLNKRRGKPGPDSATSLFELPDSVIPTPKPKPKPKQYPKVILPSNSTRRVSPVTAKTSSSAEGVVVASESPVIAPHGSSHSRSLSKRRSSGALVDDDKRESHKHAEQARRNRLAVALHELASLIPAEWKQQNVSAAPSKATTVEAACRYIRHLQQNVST
# Test: relative binding free energy (BET-seq); higher = weaker binding
# Details: reference: library average
row,Sequence,relative binding free energy
1,TGGTACACGTGATGGA,0.29 kcal/mol
2,GTGTGCACGTGAAAAT,0.15 kcal/mol
3,TTTTGCACGTGTTTAT,-0.05 kcal/mol
4,TTTCACACGTGGTTTG,0.07 kcal/mol
5,AGTAGCACGTGTTGGC,-0.09 kcal/mol
6,TTAAGCACGTGCGTGT,-0.16 kcal/mol
7,TTACGCACGTGGTGGG,-0.18 kcal/mol
8,TTGAGCACGTGTAGTT,-0.06 kcal/mol
9,GTCGTCACGTGAGTAG,0.3 kcal/mol
10,GTTTCCACGTGAAAGT,0.45 kcal/mol
11,GGGTTCACGTGTACGT,0.3 kcal/mol
12,GTTGTCACGTGTCGGA,0.34 kcal/mol
13,ATAGCCACGTGGAGTG,-0.13 kcal/mol
14,GTGCCCACGTGAGTGG,0.11 kcal/mol
15,TTAATCACGTGCGGGG,0.12 kcal/mol
16,TCGGGCACGTGAGTCT,0.11 kcal/mol
17,AAGGTCACGTGAGTGC,0.28 kcal/mol
18,TAGTTCACGTGTAGGG,0.31 kcal/mol
19,ATGGACACGTGGGTTG,-0.14 kcal/mol
20,GCCTGCACGTGTTTGG,0.07 kcal/mol
21,ACGGTCACGTGACGGG,0.26 kcal/mol
22,GTTTGCACGTGTAGAG,0.2 kcal/mol
23,TATGACACGTGGCTTT,-0.1 kcal/mol
24,TTTTCCACGTGGTGTC,-0.05 kcal/mol
25,CGTGGCACGTGGTGAT,-0.2 kcal/mol
26,GTGGACACGTGGGTAT,-0.06 kcal/mol

row,Sequence,relative binding free energy
1,TTGAGCACGTGTATAG,-0.01 kcal/mol
2,AAGTCCACGTGTGTTT,0.03 kcal/mol
3,GTGTTCACGTGTGGAC,0.22 kcal/mol
4,CGTCGCACGTGGGTCG,-0.17 kcal/mol
5,TTGGTCACGTGATGTC,0.27 kcal/mol
6,TGGGACACGTGGACAT,0.17 kcal/mol
7,GGAGGCACGTGCGAGT,-0.06 kcal/mol
8,TTAAGCACGTGGAGCA,-0.09 kcal/mol
9,GGGTGCACGTGGTGTG,0.06 kcal/mol
10,GAGGGCACGTGAGAAG,0.26 kcal/mol
11,TACGTCACGTGTTTTT,0.15 kcal/mol
12,TTTGTCACGTGTCCAT,0.12 kcal/mol
13,ATTGTCACGTGGGATC,0.01 kcal/mol
14,TTTTACACGTGTAAAG,0.19 kcal/mol
15,GAGATCACGTGATGAG,0.5 kcal/mol
16,TGGAGCACGTGGGGCC,-0.2 kcal/mol
17,TTTGACACGTGGTAGT,0.01 kcal/mol
18,ATGGGCACGTGTTTTT,-0.12 kcal/mol
19,GGGAGCACGTGTTAAT,0.06 kcal/mol
20,TAGTTCACGTGAGGTG,0.36 kcal/mol
21,TGGGACACGTGGCAAT,-0.04 kcal/mol
22,GGGCGCACGTGCCGGG,-0.32 kcal/mol
23,AGCGGCACGTGAGTGT,0.09 kcal/mol
24,TGGGGCACGTGGGATC,-0.12 kcal/mol
25,AATGTCACGTGAGATG,0.37 kcal/mol
26,AGAGACACGTGTGTAT,0.1 kcal/mol

row,Sequence,relative binding free energy
1,GTGGGCACGTGTGACA,-0.07 kcal/mol
2,AATATCACGTGGGTAT,-0.15 kcal/mol
3,AAGTTCACGTGTGCGT,0.17 kcal/mol
4,ATTTGCACGTGTCATA,-0.12 kcal/mol
5,GTAGGCACGTGTTCGT,-0.12 kcal/mol
6,CAGTTCACGTGGGGTT,0.26 kcal/mol
7,ATATTCACGTGTGACA,0.38 kcal/mol
8,TTTATCACGTGTACGA,0.21 kcal/mol
9,TTGGGCACGTGTTTAC,-0.08 kcal/mol
10,TGATACACGTGGGTAT,-0.06 kcal/mol
11,CATGTCACGTGAGTGG,0.17 kcal/mol
12,TATGGCACGTGTTTGG,-0.01 kcal/mol
13,TTTTACACGTGATAGG,0.14 kcal/mol
14,ATTTTCACGTGTGCGA,0.11 kcal/mol
15,ATAATCACGTGTTTGA,-0.02 kcal/mol
16,TTATACACGTGAGATG,0.36 kcal/mol
17,GTTATCACGTGACGGG,0.21 kcal/mol
18,GAGGTCACGTGAGGCA,0.48 kcal/mol
19,TATAACACGTGATGAT,0.17 kcal/mol
20,GGAAGCACGTGAAGGT,0.13 kcal/mol
21,TATAGCACGTGTAGAT,0.03 kcal/mol
22,GGTGTCACGTGCGCAG,-0.07 kcal/mol
23,TATTACACGTGGGTTC,0.05 kcal/mol
24,GTGCGCACGTGTGCGT,-0.06 kcal/mol
25,CAGCTCACGTGAGGTG,0.32 kcal/mol
26,TGGTACACGTGGTGCA,-0.09 kcal/mol

row,Sequence,relative binding free energy
1,ATTGTCACGTGTGCGT,0.09 kcal/mol
2,GGTGTCACGTGGGCAA,-0.09 kcal/mol
3,AATATCACGTGGAGGT,0.07 kcal/mol
4,TGATTCACGTGAGAGT,0.32 kcal/mol
5,TCGAGCACGTGGTGGT,-0.25 kcal/mol
6,CATTACACGTGTTTGT,-0.02 kcal/mol
7,AACGGCACGTGTAAGG,-0.03 kcal/mol
8,GTGTGCACGTGGGGAC,0.02 kcal/mol
9,TCGTACACGTGTGTAA,0.3 kcal/mol
10,TCGGCCACGTGCGGGG,-0.05 kcal/mol
11,CGGCGCACGTGCGGGT,-0.2 kcal/mol
12,GGTACCACGTGTTTTT,0.07 kcal/mol
13,CTTTGCACGTGCTGTA,-0.08 kcal/mol
14,GAGGGCACGTGTGGAC,0.09 kcal/mol
15,TTAGGCACGTGTAAGC,-0.01 kcal/mol
16,TTGAGCACGTGGCTGA,-0.18 kcal/mol
17,GGCGGCACGTGGCGGT,-0.07 kcal/mol
18,GTGTTCACGTGAAGTT,0.49 kcal/mol
19,TTGTACACGTGGATCT,0.15 kcal/mol
20,ATGAGCACGTGGGCGA,-0.21 kcal/mol
21,CTCAGCACGTGGGGTG,-0.07 kcal/mol
22,GAGGTCACGTGTTTAG,0.34 kcal/mol
23,GCGTGCACGTGTGTGC,0.06 kcal/mol
24,TTGCGCACGTGGCTTT,-0.25 kcal/mol
25,TTGTTCACGTGTGCCG,0.28 kcal/mol
26,CGTAACACGTGGGTGA,-0.13 kcal/mol

row,Sequence,relative binding free energy
1,GCGGTCACGTGCGGTT,0.22 kcal/mol
2,GGGAACACGTGTGGGG,0.06 kcal/mol
3,GTAATCACGTGATATT,0.35 kcal/mol
4,AGTATCACGTGTTACT,0.14 kcal/mol
5,GGATTCACGTGGTTTC,0.32 kcal/mol
6,TGATTCACGTGTCGAG,0.22 kcal/mol
7,AAGTGCACGTGGCGTT,-0.07 kcal/mol
8,AGTGGCACGTGTCGGG,-0.16 kcal/mol
9,GAGGGCACGTGGCGAT,-0.2 kcal/mol
10,AGAAGCACGTGTGGTT,0.03 kcal/mol
11,TTGAGCACGTGATAGC,0.02 kcal/mol
12,CGGTACACGTGGCGCG,0.12 kcal/mol
13,CTTTTCACGTGTGCGG,0.27 kcal/mol
14,TAGTCCACGTGTGGGA,-0.02 kcal/mol
15,TTTGCCACGTGGTGAT,-0.23 kcal/mol
16,TTTCGCACGTGCGGGG,-0.04 kcal/mol
17,AGTGTCACGTGATTAT,0.05 kcal/mol
18,TGGATCACGTGTTCGT,0.03 kcal/mol
19,AAGGTCACGTGCTGGT,0.17 kcal/mol
20,TTGTTCACGTGAGAAA,0.43 kcal/mol
21,TCTGCCACGTGTGGGT,-0.02 kcal/mol
22,AGGTTCACGTGGTCTT,0.17 kcal/mol
23,TGATGCACGTGAAGTT,0.3 kcal/mol
24,TTTGACACGTGTTCGA,0.07 kcal/mol
25,GGAAGCACGTGATGTG,0.01 kcal/mol
26,GAATTCACGTGGGGTG,0.22 kcal/mol

row,Sequence,relative binding free energy
1,GGTCTCACGTGTGATT,0.25 kcal/mol
2,GGTAACACGTGGTTGG,0.03 kcal/mol
3,TATGTCACGTGAATGA,0.21 kcal/mol
4,GAACTCACGTGAGGGG,0.55 kcal/mol
5,CGTATCACGTGTCGTT,0 kcal/mol
6,AGGCACACGTGGGGGG,-0.08 kcal/mol
7,TTTATCACGTGGTAGG,0.11 kcal/mol
8,TTCATCACGTGCATGT,0.18 kcal/mol
9,ATATTCACGTGGAGCT,0.15 kcal/mol
10,GGTGTCACGTGATACG,0.11 kcal/mol
11,GGGAACACGTGGTGTA,-0.03 kcal/mol
12,GTGGGCACGTGGAGTC,0.05 kcal/mol
13,TGATTCACGTGTGTGC,0.21 kcal/mol
14,TGTTACACGTGTAGTA,0.12 kcal/mol
15,TAGAGCACGTGTGTAA,-0.17 kcal/mol
16,TGACTCACGTGTATGG,0.17 kcal/mol
17,GAAGGCACGTGTGGGA,-0.04 kcal/mol
18,CGTGCCACGTGTTTGG,-0.11 kcal/mol
19,GTTCTCACGTGTTGAA,0.4 kcal/mol
20,ATGGGCACGTGATCGT,-0.15 kcal/mol
21,GCTAGCACGTGTGCGG,0.1 kcal/mol
22,TATATCACGTGGGGGG,-0.02 kcal/mol
23,GGATTCACGTGGCGGG,0.18 kcal/mol
24,TATTTCACGTGTTTCG,0.35 kcal/mol
25,TGGTGCACGTGATGTA,-0.04 kcal/mol
26,TTTGACACGTGGGCAT,-0.23 kcal/mol

row,Sequence,relative binding free energy
1,AGTAGCACGTGAGAAT,0.21 kcal/mol
2,AGGGTCACGTGAGGGA,0.27 kcal/mol
3,TCAGACACGTGGAGTG,0.01 kcal/mol
4,GTTGGCACGTGATATT,0.04 kcal/mol
5,TGGAACACGTGTTGAT,0.14 kcal/mol
6,GTAATCACGTGGTTTG,0.07 kcal/mol
7,GGACTCACGTGGGCGG,0.09 kcal/mol
8,GGAGTCACGTGAGAGG,0.43 kcal/mol
9,TTTGACACGTGTTTGC,0.02 kcal/mol
10,GTAGCCACGTGTAGGG,-0.07 kcal/mol
11,CGCGACACGTGGGGGA,-0.01 kcal/mol
12,ATAGTCACGTGGCTGA,0.03 kcal/mol
13,TTTGCCACGTGGTGCA,-0.08 kcal/mol
14,GTTCTCACGTGGGGCT,0.17 kcal/mol
15,CGAGTCACGTGAAGTT,0.4 kcal/mol
16,ATGATCACGTGGTACT,0.04 kcal/mol
17,TGGAACACGTGGTAGG,-0.03 kcal/mol
18,GGAGCCACGTGGGGGG,-0.19 kcal/mol
19,AGGGGCACGTGAAATG,0.04 kcal/mol
20,GGTTGCACGTGATAAT,0.25 kcal/mol
21,AAGTTCACGTGGGGGT,0.14 kcal/mol
22,ACTTTCACGTGGTGTG,0.05 kcal/mol
23,TTCTCCACGTGGTGGG,0.04 kcal/mol
24,GTTGTCACGTGTGCGG,0.14 kcal/mol
25,GTGATCACGTGATTTA,0.36 kcal/mol
26,GGTTCCACGTGGGTGG,0.11 kcal/mol

row,Sequence,relative binding free energy
1,AGCGTCACGTGAAGGG,0.31 kcal/mol
2,TTTTACACGTGTGGGC,0.19 kcal/mol
3,TACGACACGTGGTTGG,-0.03 kcal/mol
4,TGTCTCACGTGCTGGG,0.2 kcal/mol
5,GTTTACACGTGTGACG,0.09 kcal/mol
6,TTGGTCACGTGGTTAG,0.11 kcal/mol
7,TGGATCACGTGGTTCA,0.01 kcal/mol
8,CTTGACACGTGGGGCG,-0.14 kcal/mol
9,CTGCTCACGTGAGGTG,0.33 kcal/mol
10,GCGGGCACGTGGTTCT,-0.07 kcal/mol
11,TGTCTCACGTGTCAGG,0.23 kcal/mol
12,TAGCGCACGTGTTGGG,-0.13 kcal/mol
13,ATGGGCACGTGGCCTG,-0.28 kcal/mol
14,CTGCGCACGTGGTGTA,-0.31 kcal/mol
15,TTTGGCACGTGTCCAG,-0.02 kcal/mol
16,TATTTCACGTGGAAAA,0.39 kcal/mol
17,GTGTTCACGTGCGAAG,0.29 kcal/mol
18,CGGTTCACGTGAGTTG,0.43 kcal/mol
19,AGGACCACGTGTGGGG,-0.08 kcal/mol
20,GTTTGCACGTGAGCCG,0.14 kcal/mol
21,AGGTACACGTGAGGGC,0.28 kcal/mol
22,TAGAACACGTGAGTGT,0.28 kcal/mol
23,CTTCGCACGTGTTGGG,-0.17 kcal/mol
24,GCTTGCACGTGATGGC,0.26 kcal/mol
25,GTTGTCACGTGGTAGT,0.13 kcal/mol
26,CTTAGCACGTGTTGGC,-0.04 kcal/mol

row,Sequence,relative binding free energy
1,TTACACACGTGGGTTG,-0.26 kcal/mol
2,CTGATCACGTGGGAAG,0.17 kcal/mol
3,TGTATCACGTGAACGG,0.38 kcal/mol
4,AGGGGCACGTGTATTT,-0.02 kcal/mol
5,CTTGGCACGTGGTTCT,-0.08 kcal/mol
6,TTAGTCACGTGGTGTA,0.1 kcal/mol
7,AGCATCACGTGATGGA,0.39 kcal/mol
8,GGAGCCACGTGGGTAG,-0.28 kcal/mol
9,GGAGTCACGTGATGCA,0.32 kcal/mol
10,GGGCTCACGTGATGGG,0.4 kcal/mol
11,ACTGTCACGTGAGTGC,0.25 kcal/mol
12,GTGGGCACGTGCACTG,-0.16 kcal/mol
13,ATTGGCACGTGTTGCA,-0.04 kcal/mol
14,GTGATCACGTGTACGT,0.07 kcal/mol
15,TTATTCACGTGGGAAC,0.28 kcal/mol
16,TTGTTCACGTGCGGAG,0.26 kcal/mol
17,AACGACACGTGGGGTG,-0.22 kcal/mol
18,GAGATCACGTGTGGGC,0.37 kcal/mol
19,TTGGACACGTGCTGGC,0.13 kcal/mol
20,GTCTTCACGTGGAGTA,0.38 kcal/mol
21,TCTCGCACGTGTTTTG,0 kcal/mol
22,TTGAGCACGTGGCGTT,-0.12 kcal/mol
